# According to the supplement of paper PMC8728848:
# The list shows a part of the results.
# B1: FBG5 (Homo sapiens), Q8NI29 (protein)
# chain: MGASVSRGRAARVPAPEPEPEEALDLSQLPPELLLVVLSHVPPRTLLGRCRQVCRGWRALVDGQALWLLILARDHGATGRALLHLARSCQSPARNARPCPLGRFCARRPIGRNLIRNPCGQEGLRKWMVQHGGDGWVVEENRTTVPGAPSQTCFVTSFSWCCKKQVLDLEEEGLWPELLDSGRIEICVSDWWGARHDSGCMYRLLVQLLDANQTVLDKFSAVPDPIPQWNNNACLHVTHVFSNIKMGVRFVSFEHRGQDTQFWAGHYGARVTNSSVIVRVRLS
# Tests used:
# Assay in all cases: glycan array binding signal (z-score within array); higher = stronger binding
# Conditions in all cases: glycan notation: IUPAC condensed, linker removed
# [1] = target: Fuc(a1-3)[Gal(b1-4)]GlcNAc(b1-4)Gal(b1-4)[Fuc(a1-3)]GlcNAc(b1-4)Gal(b1-4)[Fuc(a1-3)]GlcNAc
# Procedure, shortened: (§1)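 Columns mapping to the same glycan were averaged after glycan names were converted to IUPAC-condensed notation. The data come from 3228 arrays in the Consortium for Functional Glycomics database, limited to those with an available protein sequence. Binding is reported as a within-array Z-score averaged across arrays of one protein sequence and across linkers.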
# [2] = target: Fuc(a1-3)[Gal3S(b1-4)]GlcNAc
# Procedure, shortened: as §1
# [3] = target: Fuc(a1-3)[GalNAc(b1-4)]Gal(b1-4)GlcNAc
# Procedure, shortened: as §1
# Fuc(a1-4)GlcNAc = target: Fuc(a1-4)GlcNAc
# Procedure, shortened: as §1
# Fuc(b1-3)GlcNAc = target: Fuc(b1-3)GlcNAc
# Procedure, shortened: as §1
# Gal(a1-2)Gal = target: Gal(a1-2)Gal
# Procedure, shortened: as §1
# Gal(a1-3)Gal = target: Gal(a1-3)Gal
# Procedure, shortened: as §1
# Gal(a1-3)Gal(b1-3)Glc = target: Gal(a1-3)Gal(b1-3)Glc
# Procedure, shortened: as §1
# Gal(a1-3)Gal(b1-3)GlcNAc = target: Gal(a1-3)Gal(b1-3)GlcNAc
# Procedure, shortened: as §1
# Gal(a1-3)Gal(b1-4)GlcNAc = target: Gal(a1-3)Gal(b1-4)GlcNAc
# Procedure, shortened: as §1
# [4] = target: Gal(a1-3)Gal(b1-4)[Fuc(a1-3)]GalNAc
# Procedure, shortened: as §1
# Gal(a1-3)GlcNAc = target: Gal(a1-3)GlcNAc
# Procedure, shortened: as §1
# [5] = target: Gal(a1-3)[Gal(a1-4)]Gal(b1-4)GlcNAc
# Procedure, shortened: as §1
# Gal(a1-4)Gal(b1-4)Gal = target: Gal(a1-4)Gal(b1-4)Gal
# Procedure, shortened: as §1
# Gal(a1-4)Gal(b1-4)GalNAc = target: Gal(a1-4)Gal(b1-4)GalNAc
# Procedure, shortened: as §1
# Gal(a1-4)GlcNAc = target: Gal(a1-4)GlcNAc
# Procedure, shortened: as §1
# Gal(a1-6)Glc = target: Gal(a1-6)Glc
# Procedure, shortened: as §1
# Gal(b1-2)Gal = target: Gal(b1-2)Gal
# Procedure, shortened: as §1
# Gal(b1-3)Gal = target: Gal(b1-3)Gal
# Procedure, shortened: as §1
# Gal(b1-3)GalNAc = target: Gal(b1-3)GalNAc
# Procedure, shortened: as §1
# [6] = target: Gal(b1-3)GalNAc(b1-3)Gal(a1-4)Gal(b1-4)Glc
# Procedure, shortened: as §1
# [7] = target: Gal(b1-3)GalNAc(b1-3)Gal(b1-4)Glc
# Procedure, shortened: as §1
# [8] = target: Gal(b1-3)GalNAc(b1-3)Gal(b1-4)GlcNAc
# Procedure, shortened: as §1
# [9] = target: Gal(b1-3)GalNAc(b1-4)Gal(b1-4)Glc
# Procedure, shortened: as §1
# [10] = target: Gal(b1-3)GalNAc(b1-4)[Neu5Ac(a2-3)]Gal(b1-4)Glc
# Procedure, shortened: as §1
# [11] = target: Gal(b1-3)[Fuc(a1-4)]GlcNAc
# Procedure, shortened: as §1
# [12] = target: Gal(b1-3)[Fuc(a1-4)]GlcNAc(b1-3)Gal(b1-4)GlcNAc
# Procedure, shortened: as §1
# [13] = target: Gal(b1-3)[Fuc(a1-4)]GlcNAc(b1-3)Gal(b1-4)[Fuc(a1-3)]GlcNAc
# Procedure, shortened: as §1
# [14] = target: Gal(b1-3)[GlcNAc(b1-6)]GalNAc
# Procedure, shortened: as §1
# [15] = target: Gal(b1-3)[GlcNAc(b1-6)]GlcNAc
# Procedure, shortened: as §1
# [16] = target: Gal(b1-3)[Neu5Ac(a2-6)]GalNAc
# Procedure, shortened: as §1
# [17] = target: Gal(b1-3)[Neu5Ac(a2-6)]GlcNAc
# Procedure, shortened: as §1
# [18] = target: Gal(b1-3)[Neu5Ac(a2-6)]GlcNAc(a1-4)Gal(b1-4)Glc
# Procedure, shortened: as §1
# [19] = target: Gal(b1-3)[Neu5Ac(b2-6)]GlcNAc
# Procedure, shortened: as §1
# [20] = target: Gal(b1-4)GalNAc(a1-3)[Fuc(a1-2)]Gal(b1-4)GlcNAc
# Procedure, shortened: as §1
# [21] = target: Gal(b1-4)GalNAc(b1-3)[Fuc(a1-2)]Gal(b1-4)GlcNAc
# Procedure, shortened: as §1
# Gal(b1-4)Glc = target: Gal(b1-4)Glc
# Procedure, shortened: as §1
binder,measurement,setting,value
B1,glycan array binding signal (z-score),[1],0.032
same,glycan array binding signal (z-score),[2],-0.187
same,glycan array binding signal (z-score),[3],-0.19
same,glycan array binding signal (z-score),Fuc(a1-4)GlcNAc,-0.064
same,glycan array binding signal (z-score),Fuc(b1-3)GlcNAc,-0.186
same,glycan array binding signal (z-score),Gal(a1-2)Gal,-0.096
same,glycan array binding signal (z-score),Gal(a1-3)Gal,-0.047
same,glycan array binding signal (z-score),Gal(a1-3)Gal(b1-3)Glc,-0.18
same,glycan array binding signal (z-score),Gal(a1-3)Gal(b1-3)GlcNAc,-0.215
same,glycan array binding signal (z-score),Gal(a1-3)Gal(b1-4)GlcNAc,-0.202
same,glycan array binding signal (z-score),[4],-0.177
same,glycan array binding signal (z-score),Gal(a1-3)GlcNAc,-0.153
same,glycan array binding signal (z-score),[5],-0.186
same,glycan array binding signal (z-score),Gal(a1-4)Gal(b1-4)Gal,-0.074
same,glycan array binding signal (z-score),Gal(a1-4)Gal(b1-4)GalNAc,-0.17
same,glycan array binding signal (z-score),Gal(a1-4)GlcNAc,-0.246
same,glycan array binding signal (z-score),Gal(a1-6)Glc,-0.198
same,glycan array binding signal (z-score),Gal(b1-2)Gal,-0.149
same,glycan array binding signal (z-score),Gal(b1-3)Gal,-0.005
same,glycan array binding signal (z-score),Gal(b1-3)GalNAc,-0.134
same,glycan array binding signal (z-score),[6],-0.227
same,glycan array binding signal (z-score),[7],-0.163
same,glycan array binding signal (z-score),[8],-0.243
same,glycan array binding signal (z-score),[9],-0.134
same,glycan array binding signal (z-score),[10],-0.177
same,glycan array binding signal (z-score),[11],-0.178
same,glycan array binding signal (z-score),[12],-0.128
same,glycan array binding signal (z-score),[13],-0.217
same,glycan array binding signal (z-score),[14],-0.224
same,glycan array binding signal (z-score),[15],-0.197
same,glycan array binding signal (z-score),[16],-0.237
same,glycan array binding signal (z-score),[17],-0.212
same,glycan array binding signal (z-score),[18],-0.228
same,glycan array binding signal (z-score),[19],-0.146
same,glycan array binding signal (z-score),[20],-0.188
same,glycan array binding signal (z-score),[21],-0.138
same,glycan array binding signal (z-score),Gal(b1-4)Glc,-0.202
